# According to a collection of fitness landscapes (doi:10.1016/j.celrep.2020.107928):
# The full ranking holds about 81,000 sequences; the median of “one-hybrid fitness for binding parS DNA” is about -0.17, and the highest 2% start at about 0.51. This is one part of the list.
# B1: Caulobacter ParB omega fusion; a variant is named by its letters at X, in order, B8GW30 (parent)
# chain: MESVVVGEPGMSEGRRGLGRGLSALLGEVDAAPAQAPGEQLGGSREAPIEILQRNPDQPRRTFREEDLEDLSNSIREKGVLQPILVRPSPDTAGEYQIVAGERAWRAAQRAGLKTVPIMVRELDDLAVLEIGIIENVQRADLNVLEEALSYKVLMEKFERTQENIAQTIGKSXSHVANXMRLLXLPDEVQSYLVSGELTAXHARAIAAAADPVALAKQIIEGGLSVRETEALARKAPNLSAGKSKGGRPPRVKDTDTQALESDLSSVLGLDVSIDHRGSTGTLTITYATLEQLDDLCNRLTRGI
# Variants of: B1
# Experiment: one-hybrid fitness for binding parS DNA (scaled: cognate 1, non-cognate 0); higher = stronger binding
# Conditions: with parS DNA site
# Outline: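 Pre- and post-selection plasmids were Illumina-sequenced, three replicate libraries were pooled, and any variant with under 10 reads was removed. The libraries were Caulobacter ParB with four specificity codons randomised, selected in E. coli USO through a HIS3 reporter whose site is 19 bp from the promoter. Cells grew 48 hours at 37°C on M9 without histidine, with 0.1 mM IPTG and 5 mM 3-AT. Fitness is the log change in variant-to-wild-type read ratio, rescaled against cognate and non-cognate.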
row,Variant,one-hybrid fitness for binding parS DNA
1,FFPT,≤ 0.2
2,NMRS,≤ 0.2
3,MWRT,≤ 0.2
4,RCAR,≤ 0.2
5,LSPS,≤ 0.2
6,LPPF,≤ 0.2
7,MFES,≤ 0.2
8,HSHE,≤ 0.2
9,RSTQ,≤ 0.2
10,RAMV,≤ 0.2
11,ETVR,≤ 0.2
12,FAYR,≤ 0.2
13,TCTI,≤ 0.2
14,LARM,≤ 0.2
15,CNPF,≤ 0.2
16,KNLA,≤ 0.2
17,QITL,≤ 0.2
18,HHHR,≤ 0.2
19,LDVK,≤ 0.2
20,MPAK,≤ 0.2
21,KTSI,≤ 0.2
22,WTKR,≤ 0.2
23,YDTH,≤ 0.2
24,QFRS,≤ 0.2

row,Variant,one-hybrid fitness for binding parS DNA
1,RNPW,≤ 0.2
2,SRRV,≤ 0.2
3,QKYM,≤ 0.2
4,SRFG,≤ 0.2
5,RTKK,≤ 0.2
6,EIYR,≤ 0.2
7,SYMC,≤ 0.2
8,VAYG,≤ 0.2
9,FQSS,≤ 0.2
10,TSEV,≤ 0.2
11,YPLT,≤ 0.2
12,CGLT,≤ 0.2
13,RRID,≤ 0.2
14,NRCS,≤ 0.2
15,HGVR,≤ 0.2
16,CKYS,≤ 0.2
17,FSST,≤ 0.2
18,HFGG,≤ 0.2
19,MVQS,≤ 0.2
20,MMES,≤ 0.2
21,DKST,≤ 0.2
22,RNNF,≤ 0.2
23,QILR,≤ 0.2
24,RSYY,0.457

row,Variant,one-hybrid fitness for binding parS DNA
1,TKTA,≤ 0.2
2,SVYL,≤ 0.2
3,VRWL,≤ 0.2
4,FGGG,≤ 0.2
5,WQAC,≤ 0.2
6,LDGA,≤ 0.2
7,PTYS,≤ 0.2
8,HERR,≤ 0.2
9,CYQC,≤ 0.2
10,AAGY,≤ 0.2
11,YFVS,≤ 0.2
12,WKTC,≤ 0.2
13,SYWL,≤ 0.2
14,WSQS,≤ 0.2
15,ACAS,≤ 0.2
16,RLTE,≤ 0.2
17,MCVR,≤ 0.2
18,REAY,≤ 0.2
19,KTPK,≤ 0.2
20,ARMR,≤ 0.2
21,GTPD,≤ 0.2
22,VLCV,≤ 0.2
23,VYTF,≤ 0.2
24,SLKP,≤ 0.2

row,Variant,one-hybrid fitness for binding parS DNA
1,LLHP,≤ 0.2
2,FWRE,≤ 0.2
3,PNKI,≤ 0.2
4,VAWH,≤ 0.2
5,PPVE,≤ 0.2
6,TTYD,≤ 0.2
7,QADE,≤ 0.2
8,FTYS,≤ 0.2
9,HCQS,≤ 0.2
10,YTSS,≤ 0.2
11,YTFC,≤ 0.2
12,VVSD,≤ 0.2
13,NVKT,≤ 0.2
14,NLNY,≤ 0.2
15,QMEK,≤ 0.2
16,QRNS,≤ 0.2
17,TTPV,≤ 0.2
18,ATPW,≤ 0.2
19,EPCR,≤ 0.2
20,SKAC,≤ 0.2
21,QWNN,≤ 0.2
22,KTVT,≤ 0.2
23,YHAM,≤ 0.2
24,MALA,≤ 0.2

row,Variant,one-hybrid fitness for binding parS DNA
1,KTQW,≤ 0.2
2,EKPL,≤ 0.2
3,PYQV,≤ 0.2
4,LKKD,≤ 0.2
5,AACC,≤ 0.2
6,QWTS,≤ 0.2
7,TWEC,≤ 0.2
8,GTPR,≤ 0.2
9,LHWT,≤ 0.2
10,CCNS,≤ 0.2
11,KAEC,≤ 0.2
12,AIGW,≤ 0.2
13,DAIK,≤ 0.2
14,IQHG,≤ 0.2
15,QQMN,≤ 0.2
16,LGTD,≤ 0.2
17,EAQR,≤ 0.2
18,SLAI,≤ 0.2
19,SVYF,≤ 0.2
20,VVFS,≤ 0.2
21,HYVR,≤ 0.2
22,DSAR,≤ 0.2
23,FAFS,≤ 0.2
24,HDNF,≤ 0.2

row,Variant,one-hybrid fitness for binding parS DNA
1,NAPW,≤ 0.2
2,VTSN,≤ 0.2
3,LAAG,≤ 0.2
4,RRIW,≤ 0.2
5,PHLK,≤ 0.2
6,RYES,0.975
7,PRTE,≤ 0.2
8,NQFD,≤ 0.2
9,MNRI,≤ 0.2
10,QEVT,≤ 0.2
11,EAVD,≤ 0.2
12,RILP,≤ 0.2
13,SSVG,≤ 0.2
14,VYCE,≤ 0.2
15,DIRD,≤ 0.2
16,EVMR,≤ 0.2
17,CYRF,≤ 0.2
18,TSSK,≤ 0.2
19,KHNH,≤ 0.2
20,RCWP,0.252
21,YDKG,≤ 0.2
22,WLRL,≤ 0.2
23,THTT,≤ 0.2
24,ECNK,≤ 0.2

row,Variant,one-hybrid fitness for binding parS DNA
1,TYSV,≤ 0.2
2,MTSN,≤ 0.2
3,TKNT,≤ 0.2
4,DVTR,≤ 0.2
5,NYGY,≤ 0.2
6,RIFC,0.96
7,LVPV,≤ 0.2
8,HRQT,≤ 0.2
9,HAPN,≤ 0.2
10,QMDS,≤ 0.2
11,KRPS,≤ 0.2
12,PKDA,≤ 0.2
13,NCFS,≤ 0.2
14,YCRA,≤ 0.2
15,YGCL,≤ 0.2
16,QLDS,≤ 0.2
17,TYQT,≤ 0.2
18,NAAM,≤ 0.2
19,CDRV,≤ 0.2
20,WTHY,≤ 0.2
21,QHQI,≤ 0.2
22,HLNI,≤ 0.2
23,MLTS,≤ 0.2
24,HHYV,≤ 0.2

row,Variant,one-hybrid fitness for binding parS DNA
1,VDSE,≤ 0.2
2,QHDT,≤ 0.2
3,FSIC,≤ 0.2
4,QAAK,≤ 0.2
5,YSVF,≤ 0.2
6,QRLV,≤ 0.2
7,REAK,≤ 0.2
8,WVEP,≤ 0.2
9,VCIT,≤ 0.2
10,CYNG,≤ 0.2
11,GYEN,≤ 0.2
12,GNFA,≤ 0.2
13,YGNG,≤ 0.2
14,APHK,≤ 0.2
15,KVES,≤ 0.2
16,NLWT,≤ 0.2
17,QIRV,≤ 0.2
18,WIAI,≤ 0.2
19,LFPS,≤ 0.2
20,IQKL,≤ 0.2
21,YPPN,≤ 0.2
22,PTKD,≤ 0.2
23,LMTR,≤ 0.2
24,RKKW,0.21

row,Variant,one-hybrid fitness for binding parS DNA
1,SSLP,≤ 0.2
2,SWFT,≤ 0.2
3,RKTL,≤ 0.2
4,YWEG,≤ 0.2
5,PAHE,≤ 0.2
6,YDMR,≤ 0.2
7,HPDT,≤ 0.2
8,TENL,≤ 0.2
9,VHTL,≤ 0.2
10,TPRV,≤ 0.2
11,HYEG,≤ 0.2
12,SHKS,≤ 0.2
13,FAMS,≤ 0.2
14,RDIC,≤ 0.2
15,SVVM,≤ 0.2
16,CVQG,≤ 0.2
17,SNCL,≤ 0.2
18,SHHD,≤ 0.2
19,PPEC,≤ 0.2
20,VVWS,≤ 0.2
21,QCYN,≤ 0.2
22,YFMY,≤ 0.2
23,RTDM,0.289
24,RDWT,≤ 0.2

row,Variant,one-hybrid fitness for binding parS DNA
1,RKMT,0.824
2,RGPK,≤ 0.2
3,YSQW,≤ 0.2
4,WGYG,≤ 0.2
5,LWET,≤ 0.2
6,LFAT,≤ 0.2
7,SGVG,≤ 0.2
8,KTES,≤ 0.2
9,PCHT,≤ 0.2
10,IWQV,≤ 0.2
11,RAQW,0.226
12,DYEV,≤ 0.2
13,KCAS,≤ 0.2
14,AHTI,≤ 0.2
15,YESP,≤ 0.2
16,CSVV,≤ 0.2
17,KPIC,≤ 0.2
18,MTTN,≤ 0.2
19,ESTT,≤ 0.2
20,WICC,0.213
21,YYNH,≤ 0.2
22,GMAS,≤ 0.2
23,WPKV,≤ 0.2
24,GPAL,≤ 0.2

row,Variant,one-hybrid fitness for binding parS DNA
1,MRNY,≤ 0.2
2,KLKS,≤ 0.2
3,EGLY,≤ 0.2
4,RRTK,≤ 0.2
5,AACG,≤ 0.2
6,REWL,≤ 0.2
7,GALF,≤ 0.2
8,QHWW,≤ 0.2
9,ETTR,≤ 0.2
10,RIWY,0.471
11,DYYT,≤ 0.2
12,AYLC,≤ 0.2
13,SRKR,≤ 0.2
14,ALCG,≤ 0.2
15,MVCG,≤ 0.2
16,WNWG,≤ 0.2
17,NVGR,≤ 0.2
18,ARWC,≤ 0.2
19,QKTK,≤ 0.2
20,GEYR,≤ 0.2
21,DVSL,≤ 0.2
22,FSVL,≤ 0.2
23,SEST,≤ 0.2
24,ITSH,≤ 0.2

row,Variant,one-hybrid fitness for binding parS DNA
1,PHRE,≤ 0.2
2,YSLW,≤ 0.2
3,MHAS,≤ 0.2
4,GGIV,≤ 0.2
5,WIDG,≤ 0.2
6,SKKK,≤ 0.2
7,SEIC,≤ 0.2
8,GTAQ,≤ 0.2
9,EVKR,≤ 0.2
10,KYAR,≤ 0.2
11,RINH,0.284
12,RQMV,≤ 0.2
13,LMYS,≤ 0.2
14,VAST,≤ 0.2
15,WKRA,≤ 0.2
16,ACKF,≤ 0.2
17,LTRG,≤ 0.2
18,HTRA,≤ 0.2
19,LRND,≤ 0.2
20,YYEW,≤ 0.2
21,LCPK,≤ 0.2
22,FSKA,≤ 0.2
23,MRMW,≤ 0.2
24,PVRH,≤ 0.2

row,Variant,one-hybrid fitness for binding parS DNA
1,YTEG,≤ 0.2
2,SHGG,≤ 0.2
3,TERM,≤ 0.2
4,WAGC,≤ 0.2
5,TKRV,≤ 0.2
6,ESPC,≤ 0.2
7,FEVN,≤ 0.2
8,SYGL,≤ 0.2
9,QGSW,≤ 0.2
10,NYDT,≤ 0.2
11,HMHA,≤ 0.2
12,HPES,≤ 0.2
13,TFTV,≤ 0.2
14,PKLD,≤ 0.2
15,NYAH,≤ 0.2
16,FLRA,≤ 0.2
17,TGFR,≤ 0.2
18,TTGI,≤ 0.2
